The list shows a part of the results.

The test deals with T1, C. trachomatis L2/434/Bu expressing GFP (CTL2-GFP).
T1 construct: L2/434/Bu GFP intracellular growth in HeLa cells
Also noted: species or system HeLa; C. trachomatis total inclusion area by high-content imaging, normalised to DMSO. The note with it: total inclusion area; 28.5 h, 10 µM; inhibitor. The method in brief: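 Host cell viability was gauged from Hoechst-stained nuclei counts, while chlamydial growth was taken from total inclusion area and inclusion number per well. Cells were fixed and imaged by high-content microscopy once bulk GFP and resorufin fluorescence had been measured.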
Consider `O=C(O)CCC(=O)N1C[C@@H]2C[C@H](C1)c1c(-c3ccc(Cl)cc3)ccc(=O)n1C2` [CBK289190], for which the “% of control remaining” value is recorded as 97.8551.
The value for `Cc1cc(C)cc(NC(=O)NCCc2cccs2)c1` [CBK044998] was 97.6797; that for `COc1cccc(NC(=O)c2ccnc(Cl)c2)c1` [CBK174661] was 57.2041; that for `Cc1ccc(S(=O)(=O)CC(=O)Nc2nc3ccc(C)cc3s2)cc1` [CBK287705] was 123.901.
The value for `Cc1ccccc1OC(C)C(=O)Nn1cnnc1` (centres unmarked) [CBK268619] was 119.853; that for `CCOc1cc(NC2CCN(C(=O)C3(CC(C)C)CCC3)CC2)ncn1` [CBK304136] was 41.6903.
Regarding `CCN(CC)C(=O)Cn1nc2c(C)cc3ccccc3n2c1=O` [CBK283879], the “% of control remaining” value was 89.9112.
Take `CC(C)(C(=O)N1CCC(CC(=O)NCCc2ccccc2F)CC1)c1ccc(F)cc1` [CBK286497]: the “% of control remaining” value is 112.763.
The value for `CC(C)CN1CCN(S(=O)(=O)c2ccc(C(F)(F)F)cc2Cl)CC1` [CBK062740] was 120.72; that for `Cc1nc(-c2cccnc2)[nH]c(=O)c1CCC(=O)N1CC2CCC1C2` (centres unmarked) [CBK304198] was 130.98; that for `CCc1nc2ccc(C(=O)N3CCN(C)CC3)cn2c1N(C)Cc1nccn1C` [CBK146299] was 91.2965.
For the compound `C[C@]12CN(Cc3cccc(C#Cc4ccccc4)c3)C[C@H]1C(=O)Nc1ccccc1C(=O)N2` [CBK286403], the “% of control remaining” value is reported as 109.133.
The value for `CCCCn1c(CSc2ncccc2C(=O)O)nc2cc(S(=O)(=O)N3CCOCC3)ccc21` [CBK297558] was 69.2865; that for `CN1CCC(N2CCN(C(=O)NCCCN3CCCC3=O)CC2)CC1` [CBK156105] was 90.584; that for `O=S(=O)(Nc1nccnc1-c1ccc2c(c1)OCO2)c1cccc(Cl)c1` [CBK050951] was 92.6103.
The value for `COc1ccc2ccccc2c1CNCCCN1CCOCC1` [CBK278209C] was 92.4837; that for `Cc1csc2c(C3CCN(C(=O)c4ccn(C)n4)CC3)nc(C)n12` [CBK285248] was 77.4292; that for `O=C(c1cccnc1)N1CCc2ccccc21` [CBK200279] was 86.9162.
Next, `CCOC(=O)c1c(NC(=S)N2CCN(S(C)(=O)=O)CC2)sc(C)c1-c1ccccc1` [CBK267072]: 86.6174; `C=CCc1cc(C)cc(C)c1OCCN1CCN(C)CC1` [CBK269672C]: 77.3317; `O=C(CSc1nnc(-c2cccnc2)n1-c1ccc(Br)cc1)Nc1ccc2c(c1)OCCO2` [CBK266133]: 97.3414.
As to `Nc1nnc(SCc2nc(=O)c3ccccc3[nH]2)s1` [CBK270059], the “% of control remaining” value is recorded as 82.2654.
Regarding `CCS(=O)(=O)c1ccc(C(=O)Nc2nc3c(F)cc(F)cc3s2)cc1` [CBK287727], the “% of control remaining” value was found to be 87.6593.
The value for `CN(C)CCN(C)C(=O)c1cc2cc(OC(F)(F)F)ccc2[nH]1` [CBK107316] was 67.3516.
Consider `CCN1CCN(C(=O)Cc2ccc(N(C)C)cc2)CC1` [CBK200253], for which the “% of control remaining” value was found to be 100.75.
The value for `Cc1[nH]c(=O)c(C#N)c(C)c1CCC(=O)NCc1cn2ccccc2n1` [CBK306325] was 27.8339.
The value for `CC(=O)Nc1ccccc1NC(=O)CN(C)S(=O)(=O)c1ccc(Cl)cc1` [CBK267373] was 103.535.
For the compound `CCNC(=O)Nc1cc2cccnc2nc1-c1ccc2c(c1)OCCCO2` [CBK070695], the “% of control remaining” value stood at 89.1893.
The value for `CC(C)(C)OC(=O)N1CCC(CNCc2c[nH]c(-c3ccccc3)n2)CC1` [CBK056718] was 120.714; that for `O=C(Nc1ccnn1Cc1cccs1)c1cc(=O)[nH]c2ccccc12` [CBK295606] was 86.8046.
Next, `CCOC(=O)c1cnc2nc3ccccc3n2c1C` [CBK270185]: 93.1813; `COCc1cccc(-c2nccnc2OCc2ccccn2)c1` [CBK106953]: 91.0375.
The value for `COC(=O)c1ccccc1NC(=O)N1CCN(S(=O)(=O)c2ccc(Cl)cc2)CC1` [CBK266860] was 123.939.
`CN1CCN(CC(=O)N2N=C(c3c(-c4ccccc4)c4cc(Cl)ccc4[nH]c3=O)CC2c2ccccc2)CC1` (centres unmarked) [CBK267545]: the “% of control remaining” value was 102.641.
The value for `CC(C)c1ccc(NC(=O)C2=NNC(=O)CC2)cc1` [CBK057421] was 43.4862; that for `CN1CCCN(Cc2ccc([N+](=O)[O-])s2)CC1` [CBK261558] was 93.8906.
For `O=C(O)CCNS(=O)(=O)c1ccc(Cl)c(Cl)c1` [CBK268815], the “% of control remaining” value is 116.342.
The value for `CN(C)c1ccc(CCNC(=O)c2cn3ccccc3n2)cc1` [CBK281916] was 92.9964; that for `CC(c1ccccc1)N(C)C(=O)Cn1c(-c2cccs2)n[nH]c1=S` (centres unmarked) [CBK296718] was 100.291; that for `FC(F)(F)c1ccc(CN2CCCN(c3nccc(OCc4ccc(Cl)c(Cl)c4)n3)CC2)cc1` [CBK083949] was 8.282.
The value for `Cc1cccc(OCC(=O)Nc2ccc(-c3nc4ncccc4o3)cc2C)c1` [CBK269287] was 109.808; that for `O=C(CCCN1C(=O)c2cccc3cccc(c23)C1=O)N1CCN(C/C=C/c2ccccc2)CC1` [CBK263300C] was 91.8585; that for `C(=C\CSC1=NCCN1)/CSC1=NCCN1` [CBK264266] was 131.75.
The value for `O=c1[nH]c2ccccc2n1CCOc1ccccc1` [CBK288008] was 114.214.
On to `CC[C@@H]1CCCCN1C(=O)c1sc2nc(C(C)=O)ccc2c1Cl` [CBK091036], for which the “% of control remaining” value is 84.3525.
As to `C[C@H](Nc1nc(-c2cccc(C(=O)NCCN(C)C)c2)cnc1N)c1ccccc1` [CBK063714], the “% of control remaining” value was found to be 114.947.
With `Cc1ccc(NC(=O)CN(C)C)c(C)n1` [CBK200388], the “% of control remaining” value is listed as 100.059.
`Cc1c(C=Cc2cc(C(=O)O)c3ccccc3n2)cc(C#N)n1C` [CBK295604]: the “% of control remaining” value worked out at 87.8617.
Turning to `N#Cc1c(NC(=O)CSc2nc3ccccc3s2)oc(-c2ccccc2)c1-c1ccccc1` [CBK269019], the “% of control remaining” value worked out at 55.4905.
Next, `COCC1CCN(c2ncc(C#N)cc2Cl)CC1` [CBK306410]: 28.1008; `COc1ncc(-c2nccnc2N[C@@H]2CCN(Cc3ccccc3)C2)c(OC)n1` [CBK036926]: 120.535; `COc1ccc(C(=O)C2=C(O)C(=O)N(CCCO)C2c2ccc(Br)cc2)cc1` (centres unmarked) [CBK263769]: 111.365.
The value for `OCc1ccccc1-c1nccnc1NCCc1cccnc1` [CBK037444] was 76.094; that for `O=C(NCCc1c[nH]c2cccc(C3(O)CCCC3)c12)C1CC1` [CBK285319] was 97.0547; that for `CCN1CCCN(c2ccc(-n3ccc(C)n3)nn2)CC1` [CBK306297] was 51.7351.
The value for `Cn1nccc1C(=O)C1CCN(C(=O)c2cccs2)CC1` [CBK284424] was 91.1755.
For `CC(C)C(=O)Nc1cc2ccccc2c(-c2cccnc2)n1` [CBK073786], the “% of control remaining” value is 97.2648.
Turning to `Cc1ccc2nc(C)c(CCC(=O)O)c(O)c2c1` [CBK262946], the “% of control remaining” value was 80.0898.
The value for `O=C(c1ccsc1NS(=O)(=O)c1cc(Cl)sc1Cl)N1CCOCC1` [CBK042288] was 95.0771.
The value for `O=C(COc1ccccc1[N+](=O)[O-])Nc1ccc(Cl)c(-c2nc3ncccc3o2)c1` [CBK268811] was 109.4; that for `Cc1cnc(NC(=O)C2CC(=O)N(Cc3cccs3)C2)s1` (centres unmarked) [CBK175531] was 33.399; that for `CCc1cc2cc3c(cc2nc1SCC(=O)Nc1cc(OC)ccc1OC)OCO3` [CBK108546] was 86.117.
Next, `CCc1nc2c(OCCOC)cccn2c1N(C)C(=O)c1ccccc1F` [CBK147722]: 104.16; `CCOC(=O)CN1C(=O)S/C(=C/c2ccc(OCc3ccc(Br)cc3)cc2)C1=O` [CBK264686]: 108.926; `N#CCCCN1C(=O)C(O)(CC(=O)c2ccccn2)c2ccccc21` (centres unmarked) [CBK307373]: 62.1319.
`O=C(CCS(=O)(=O)Cc1ccccc1)Nc1cc(C(F)(F)F)ccc1Cl` [CBK268399]: the “% of control remaining” value is on record as 97.2096.
The value for `O=C(NC(Cc1cccs1)c1nccs1)C1CSCN1` (centres unmarked) [CBK284805] was 130.219; that for `COc1ccccc1CNC(=O)N[C@@H](CC(C)C)C(=O)O` [CBK286722] was 73.7219.
Next, `COc1cccc(-c2cnc(N(C)S(C)(=O)=O)c(C(=O)NC3CCCCC3)c2)c1` [CBK106446]: 101.664; `Cc1cccc(C(=O)N2CCCCC2C)c1` (centres unmarked) [CBK074052]: 71.4233.
The value for `NS(=O)(=O)c1ccc(NC(=S)N2CCN(CCc3ccccc3)CC2)cc1` [CBK268133] was 83.2275; that for `CN(C)CCCC(=O)N1CCN(c2ncccn2)CC1` [CBK144523] was 89.6365; that for `COc1cccc(CCNC2CC(=O)N(c3ccc(NC(C)=O)cc3)C2=O)c1` (centres unmarked) [CBK265233] was 82.6144.
As to `COc1cccc(N2C(=O)N[C@@H]3CCN(S(=O)(=O)c4ccccc4)[C@@H]3C2=O)c1` [CBK289283], the “% of control remaining” value is on record as 93.1076.
Next, `N#CCCCN1CCC(Oc2cncc(OCCN3CCOCC3)n2)C1` (centres unmarked) [CBK084495]: 81.3542.
Next, `CCCC(=O)N1CCC(c2nc3ccccn3c2NC(C)(C)C)CC1` [CBK284744]: 114.602; `Cc1c(C(=O)O)sc(S(=O)(=O)N2CCN(C(=O)c3ccc(F)cc3)CC2)c1C(=O)O` [CBK297118]: 50.1901.
`CN(C)CC(=O)N1CN(C(=O)c2cccc(Br)c2)C(C)(C)C1` [CBK092206C]: the “% of control remaining” value stood at 82.5767.
Next, `COc1ccc(-c2csc(CCNC(=O)Cc3c[nH]c(=O)[nH]c3=O)n2)cc1` [CBK285670]: 84.4829.
Next, `COc1ccc(CN(CCN(C)C)C(=O)NCc2ccc(-c3ccccc3)cc2)cc1OC` [CBK159293]: 74.0407.
